Test results taken from PubChem BioAssay (NCATS).
“And” between values parts separate entries of the source, which are not always exact repeats. Equal values may be shown once. The shares of active, inactive and inconclusive entries below differ from those in the screen. For part of these data: A potency beside an inconclusive call is a rough fit, not a confirmed value. The source made the active and inactive calls. Calls follow the shape of the dose curve; as a rule, active = well fitted curve in the direction sought with a large enough effect; inconclusive = small, poorly fitted or top-dose-only effect, or another doubt; inactive = no such curve, though single readings can be large; an effect the other way counts as inactive or inconclusive.

Legend:
[1] = qHTS of pediatric cancer cell lines to identify multiple opportunities for drug repurposing: Primary screen for OHS-50 cells (AID 1347103); settings: OHS-50 osteosarcoma viability, CellTiter-Glo luminescence, 48 h; activity change, negative = cytotoxic: at 57.3 µM (top of the series); also: nearly all actives have a fitted effect of over 40% in size
Outline: (§1)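 Cells (500-1,000/well) rested 5 h, then received compounds for 48 h; metabolically active cells were measured by CellTiter-Glo luminescence. Final concentrations spanned up to 46 µM (MIPE, 11-point) or 0.59 nM-46 µM (NPC, 8-point) in primary screens, 11-point in follow-ups.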

[2] = qHTS of pediatric cancer cell lines to identify multiple opportunities for drug repurposing: Primary screen for RD cells (AID 1347104); also: nearly all actives have a fitted effect of over 55% in size
Outline: (§2)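 Primary screen of approved and investigational compounds on cells in growth media at 37 degrees C, 5% CO2. MIPE set at 11-point and NPC set at 8-point dilutions; viability scored by ATP-based luminescence at 48 hours.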

[3] = qHTS of pediatric cancer cell lines to identify multiple opportunities for drug repurposing: Primary screen for Rh30 cells (AID 1347107); also: nearly all actives have a fitted effect of over 75% in size
Outline: as §1

[4] = qHTS of pediatric cancer cell lines to identify multiple opportunities for drug repurposing: Primary screen for Rh41 cells (AID 1347108); also: nearly all actives have a fitted effect of over 70% in size;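 as to activity change, negative = cytotoxic: luminescence drop marks cytotoxic hits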
Outline: as §2

[5] = qHTS of pediatric cancer cell lines to identify multiple opportunities for drug repurposing: Confirmatory screen for NB1643 cells (AID 1347109); settings: NB1643 neuroblastoma cell viability; activity change, negative = cytotoxic: at 45.9 µM (top of the series) unless noted; also: nearly all actives have a fitted effect of over 45% in size
Outline: as §1

[6] = qHTS of pediatric cancer cell lines to identify multiple opportunities for drug repurposing: Confirmatory screen for SK-N-MC cells (AID 1347111);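 also: cells exposed to compound for 48 h before the readout; nearly all actives have a fitted effect of over 70% in size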
Outline: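 Seed 500-1,000 cells/well; rest 5 h at 37 degrees C. Pin-transfer compounds, 11-point titration. Incubate 48 h. Add CellTiter-Glo, 15 min RT, read luminescence.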

[7] = qHTS of pediatric cancer cell lines to identify multiple opportunities for drug repurposing: Confirmatory screen for BT-12 cells (AID 1347112);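 also: viability read after 48 h of compound exposure; nearly all actives have a fitted effect of over 55% in size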
Outline: as §1

[8] = qHTS of pediatric cancer cell lines to identify multiple opportunities for drug repurposing: Primary screen for MG 63 (6-TG R) cells (AID 1347105); settings: MG 63 (6-TG R) viability, CellTiter-Glo, 48 h; activity change, negative = cytotoxic: at 46 µM (top of the series) unless noted; also: nearly all actives have a fitted effect of over 50% in size
Outline: as §2

[9] = qHTS of pediatric cancer cell lines to identify multiple opportunities for drug repurposing: Confirmatory screen for A673 cells (AID 1347110);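 also: cells exposed to compound for 48 h before the viability read; nearly all actives have a fitted effect of over 65% in size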
Outline: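 Concentration-response curves came straight from titrations: 11 points (0.78 nM to 46 µM) for MIPE and several concentrations (0.59 nM to 46 µM) for NPC in primary, 11 points in follow-up. Readout: ATP luminescence at 48 h.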
Potency is read from the fitted curve at half-maximal effect; tags tell the direction and shape of the fitted curve.

SMILES | Potency [1] | Potency [2] | Potency [3] | Potency [4] | Potency [5] | Potency [6] | Potency [7] | Potency [8] | Potency [9]
O=C(N/N=C/c1ccc([N+](=O)[O-])o1)c1cc([N+](=O)[O-])cc([N+](=O)[O-])c1O | inactive | inactive | inactive | inconclusive: 16.8 µM [cytotoxic, partial curve, poor fit] | inactive | active: 10.4 µM | inactive | – | –
COc1ccc(C(c2ccc(OC)cc2)C(Cl)(Cl)Cl)cc1 | inconclusive: 49.8 µM [cytotoxic, partial curve] | inconclusive: 48.1 µM [cytotoxic, single point] | inconclusive: 27 µM [cytotoxic, partial curve, poor fit] | inconclusive: 30.3 µM [cytotoxic, partial curve] | – | – | – | inconclusive: 24.1 µM [cytotoxic, partial curve] | –
N[C@@H](Cc1ccc(N(CCCl)CCCl)cc1)C(=O)O | active: 9.78 µM and active: 3.85 µM | inconclusive: 23.7 µM [cytotoxic, single point] | – | inconclusive: 21.1 µM [cytotoxic, single point] and inconclusive: 23.5 µM [cytotoxic, single point] | active: 6.57 µM | – | inconclusive: 26.1 µM [cytotoxic, single point] | – | active: 16.5 µM
CC(=O)Nc1cc([As](=O)(O)O)ccc1O | inactive | inactive | – | inactive | – | – | – | – | –
CN(C)CCc1c[nH]c2cccc(O)c12 | inactive | inconclusive: 53.9 µM [cytotoxic, single point] | inactive | – | – | – | – | – | –
